Laboratory results from PubChem BioAssay AID1845205 (Molecular Pharmacology Branch, DTP, NCI, 2023).
The source holds more than one record for some entries. The other results are left out here. There may be further records. Values that stand side by side repeat one measurement across runs, samples, wells, individuals or studies. Brackets with × say how often a value occurs here. Marks such as [2022-09] give the month of the run.

Tested on: MPNST multicellular tumor spheroids, viability % test/control
Test: Anticancer human tumor MPNST cell line growth inhibition;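 further: spheroids exposed to agents for seven days after three days of growth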;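 on viability, T/C: luminescence signal used as surrogate for viable cell amount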
Conditions: for IC50: compound alone; for viability, T/C: stronger effect = lower value
Source text: Multicellular complex tumor spheroid response to DNA repair inhibitors in combination with DNA-damaging drugs
This study explores the anticancer activities of DNA-damaging drugs and inhibitors of DNA damage repair, both as single agents and in combinations. Complex tumor spheroids comprised of malignant cells, endothelial cells and mesenchymal stem cells served as an in vitro model for human solid tumors. This model system incorporates physiologically relevant features and patient-derived or established malignant cell lines with clinically relevant genetic alterations from many tumor types. Twenty-six patient-derived or established malignant cell lines were evaluated representing sarcoma, melanoma, small cell lung cancer (SCLC), non-small cell lung cancer (NSCLC), as well as bladder, ovarian and pancreatic cancers. The concentration ranges selected for each drug and investigational agent were based upon clinically achievable concentrations if the clinical Cmax of the agent was known.
Compounds. The drugs and compounds olaparib (NSC753686), talazoparib (NSC767125), berzosertib (NSC777718), elimusertib (NSC800525), nedisertib (NSC802822), VX-984 (NSC792969), AZD-1390 (NSC803789), temozolomide (NSC362856), topotecan (NSC609699), trabectedin (NSC813783), staurosporine (NSC755774), and gemcitabine (NSC613327) were obtained from the National Cancer Institute (NCI) Developmental Therapeutics Program Chemical Repository. The FDA-approved anticancer drug set is available from the Developmental Therapeutics Program at https://dtp.cancer.gov/organization/dscb/obtaining/available_plates.htm. […] The stock solutions were prepared in dimethyl sulfoxide (DMSO, Sigma-Aldrich, St. Louis, MO, cat. D2650) at 400-fold the tested concentration and stored at -70 degrees C. Prior to their use, the stock solutions were diluted in fresh medium and the final DMSO concentration in the assay was 0.25% (v/v). All drugs and investigational agents were tested over a range starting from a high concentration at or near the clinical Cmax and decreasing in half-log increments. If the clinical Cmax for an agent had not been determined, the highest concentration tested was 10 microM.
Cell Lines. The patient-derived cancer cell (PDC) lines: 156681-154-R-J1-PDC, 283228-195-R-J1-PDC, 287954-098-R-J1-PDC, 292921-168-R-J2-PDC, 349418-098-R-PDC, 425362-245-T-J1-PDC, 556581-035-R-J1-PDC, and BL0293-F563-PDC were received from the NCI Patient-Derived Models Repository (PDMR, https://pdmr.cancer.gov). The established cell lines HS-SY-2 (RRID:CVCL_8719), MPNST, and SYO-1 (RRID:CVCL_7146) were obtained from the Sloan Kettering Institute. The alveolar soft parts sarcoma cell line ASPS-1 (RRID:CVCL_S738) was established at the NCI and grown from internal seed stocks. The following established cell lines were purchased from the American Type Culture Collection (ATCC, Manassas, VA): G-401 (ATCC, cat. CRL-1441, RRID:CVCL_0270), SW982 (ATCC, cat. HTB-93, RRID:CVCL_1734), VA-ES-BJ (ATCC, cat. CRL-2138, RRID:CVCL_1785), NCI-H719 (ATCC, cat. CRL-5837, RRID:CVCL_1582), NCI-H196 (ATCC, cat. CRL-5823, RRID:CVCL_1509), NCI-H841 (ATCC, cat. CRL-5845, RRID:CVCL_1595), NCI-H1618 (ATCC, cat. CRL-5879, RRID:CVCL_1480), NCI-H1876 (ATCC, cat. CRL-5902, RRID:CVCL_1503), DMS 114 (ATCC, cat. CRL-2066; RRID:CVCL_1174), NCI-H211 (ATCC, cat. CRL-5824; RRID:CVCL_1529), and SW 1271 (ATCC, cat. CRL-2177, RRID:CVCL_1716). The small cell lung cancer cell line COR-L88 was purchased from Sigma-Aldrich (cat. 92031917-1VL, RRID:CVCL_1141). The non-small cell lung cancer cell lines NCI-H226 (RRID:CVCL_1544) and NCI-H322M (RRID:CVCL_1557) were established at the NCI and grown from internal seed stocks. Pooled donor human umbilical vein endothelial cells (HUVEC, Lonza, cat. CC-2519) and human mesenchymal stem cells (hMSC, Lonza, cat. PT-2501) were purchased from Lonza (Walkersville, MD).
Cell Culture. All cells were maintained in an incubator at 37 degrees C and 5% CO2 with 95% humidity. […]

How did the IC50 turn out when `Cc1sc2c(c1C)C(c1ccc(Cl)cc1)=NC(CC(=O)Nc1ccc(O)cc1)c1nnc(C)n1-2` (centres undefined) was run?
The IC50 was 1.32 µM, > 3 µM [2019-11] and 155 nM [2019-12].

What does the source list for `COc1ccc([C@@H](O)c2cc(-c3ncnc4cc(N5CCOCC5)ccc34)c(F)cc2Cl)nn1`?
IC50: 1.74 µM [2019-11] and 1.17 µM, < 31.6 nM [2019-12]; viability, T/C (compound alone 3.16 µM): 37.4% [2019-11] and 31.4%, 7.89% [2019-12]; viability, T/C (compound alone 10 µM): 29.7% [2019-11] and 17.2%, 3.36% [2019-12]

`O=C(c1cc(Cc2n[nH]c(=O)c3ccccc23)ccc1F)N1CCN(C(=O)C2CC2)CC1` was tested. Which IC50 did it give?
The IC50 was > 30 µM [2019-11] and 1.36 µM [2019-12].

With `CC[C@@]1(O)C(=O)OCc2c1cc1n(c2=O)Cc2cc3c(CN(C)C)c(O)ccc3nc2-1` as the compound, how does the viability, T/C (compound alone 0.003 µM) read?
Its viability, T/C is 94.3, 101, 100, 92, 80.9% [2019-11] and 74.4, 100, 85.2, 97.3, 74% [2019-12].

And the viability, T/C (compound alone 0.00949 µM)?
Its viability, T/C is 95.4, 88.2, 72.4, 81.4, 77.9% [2019-11] and 81.5, 105, 85.2, 80, 65.3% [2019-12].

And the viability, T/C (compound alone 0.0949 µM)?
The viability, T/C was 55.2, 59.2, 51.5, 54.9, 47.9% [2019-11] and 36.3, 44.1 (2×), 46.6, 32.8% [2019-12].

What about the IC50 (run of 11/07/2019) of the same compound?
The IC50 was 185, 210, 70.8, 181, 66.6 nM.

What does the source list for `COc1cc2c(cc1O)CCNC21CSC2c3c(OC(C)=O)c(C)c4c(c3C(COC1=O)N1C(O)C3Cc5cc(C)c(OC)c(O)c5C(C21)N3C)OCO4` (centres undefined)?
viability, T/C (compound 30 pM): 93.8, 86.8, 102, 62.2, 118, 91.2, 98.7, 79.2, 98.5, 79.6%; viability, T/C (compound 94.9 pM): 54.8, 72, 97.5, 72.4, 81.7, 105, 106, 92.6, 104, 86.2%; viability, T/C (compound alone 0.0003 µM): 41, 67.1 (2×), 75.9, 53.2, 77.1, 88, 76.8, 109, 74%; viability, T/C (compound alone 0.000949 µM): 23.9, 42.1, 39.7, 33.4, 46.7, 37.4, 44.3, 47, 92.1, 45.2%; IC50 (run of 12/16/2019): 0.207, 0.644, 0.682, 0.406, 0.613, 0.659, 0.813, 0.843, 1.79, 0.782 nM

Which viability, T/C (compound alone 1 µM) does the source give for `Cn1nnc2c(C(N)=O)ncn2c1=O` here?
The viability, T/C was 86.3 (2×), 90.3, 103, 85.2, 95.1, 90.2, 111, 80, 72.5%.

And the viability, T/C (compound alone 3.16 µM)?
The viability, T/C was 101, 76.1, 123, 92.4, 93.7, 89.2, 95.5, 99, 81, 69.2%.

And the viability, T/C (compound alone 10 µM)?
Its viability, T/C is 94.8, 96.6, 108, 94.2, 87.3, 97, 106, 94.5, 83.1, 72.4%.

And the viability, T/C (compound alone 31.6 µM)?
The viability, T/C was 98.5, 78.3, 109, 91.3, 82.6, 99.6, 48.7, 98.7, 80.5, 79.3%.

And the viability, T/C (compound alone 100 µM)?
The viability, T/C was 90.8, 75.5, 82.7, 94.3, 85.5, 97.9, 37.9, 104, 95.8, 67.6%.
